Source: the supplement of paper PMC11417369
± gives the standard deviation of the averaged measurements. The list shows a part of the results.

System: PfAP2-EXP AP2 domain (GST-tagged)
Experiment: gcPBM binding intensity (ln(normalized median fluorescence intensity)); higher = stronger DNA binding
Outline: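 In this array assay, P. falciparum DNA-binding domains with a GST tag, expressed in E. coli, were applied for 1 h to primer-extended double-stranded 36-bp intergenic genomic probes and negative controls on an Agilent 4 × 180k array. Bound protein was visualised with Alexa488 anti-GST antibody at 488 nm. Binding intensity is the highest Masliner-normalised natural-log median intensity across replicate spots of either probe orientation.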

Sequence	gcPBM binding intensity (ln)
AATACATACAGACACACACACACATATATATATATA [CACACA_site3558]	10 ± 0.22
AATCACAACAGACACACACACAAAAAAAAAAAAAAA [CACACA_site1442]	8.15 ± 0.64
TTAATATAATAGAAGTGTACACACATATTTATGTGT [XGTACX_site6672]	8.8 ± 0.19
ATATGTTATATAAATATATATATATATATATATATA [TGCATGCA_negctrl_site594]	10.1 ± 0.33
ATATATATATATATAGTGCATAAAATAAGTTTCTAA	10.2 ± 0.28
TATTTATAAACATACGCACACATTAAAATATATATA [CACACA_site6051]	8.65 ± 0.48
TAATAATAAAAATAAACACACATATATCTGTATTTA [CACACA_site5572]	8.06 ± 0.4
GGTGGAAACAATTACACACACACAAAAAAAAAAAAA [CACACA_site3208]	8.46 ± 0.54
TTTTTATAAATACACATAAATATATATATATATATA [TGCATGCA_negctrl_site393]	10 ± 0.47
ACACAAAAAAATATATATATATATATATATATGTTA [CACACA_negctrl_site55]	8.6 ± 0.11
ATGCATTATTAGAATACACACCATACGCATATTTAT [CACACA_site4319]	8.83 ± 0.37
AAAAAAAAAAAAAAATGTACATTTTGAAAGGATATA [XGTACX_site8217]	8.46 ± 0.32
TAAAGAAAAAGAGAATGTACATGAGAAAAGTATACT [XGTACX_site7472]	9.28 ± 0.42
AAAAAAGATAATTATGCACACACACCCACCCACCCA [CACACA_site8825]	9.57 ± 0.41
AGAAAAAAAAAAAAATGTACAGACTTTTTCTTATAA [XGTACX_site6481]	8.44 ± 0.59
ATATACACACAAAAACGTACACATATATATATGTAT [XGTACX_site2673]	8.76 ± 0.33
GGTATAATAATATATAGTACACACAAAAATGGAAGT [XGTACX_site7058]	9.22 ± 0.54
AAAAAAAAAAAAAGCACACATATAAATATGAATAAA [CACACA_site1393]	8.4 ± 0.61
AAAAAAAAAAAAAACACACACATACACCCAAAAATG [CACACA_site4223]	8.66 ± 0.45

Sequence	gcPBM binding intensity (ln)
CAATCATGGGTTTACACACACATGCATGTGAAAATT [CACACA_site1349]	9.23 ± 0.56
AAAAAAAAAAAAAAAAAAAAAAAAATATATAATTTA [CACACA_negctrl_site583]	9.1 ± 0.071
AACCAAACAAATAAACGTACAAACATTACATATATT [XGTACX_site2265]	8.41 ± 0.43
ATTTTTGCAGTAATTAAATAGACAAAATGAAAAAAA [CACACA_negctrl_site1537]	8.55 ± 0.42
CATATTAAAAATTATTGTACATATTAATGAATATAA [XGTACX_site2734]	8.29 ± 0.22
GATGATAATAAATTTATATATAATATTATCTTATGT [GTGCAC_negctrl_site672]	8.34 ± 0.42
AAAATAATATTTAATACACACATAATTTTAATATAA [CACACA_site4588]	8.21 ± 0.38
TACTTATATTATTTTATTATTAAATTTAAAACGAAA [CACACA_negctrl_site736]	8.35 ± 0.42
ACAATAAAGAAGTGTACACATATATCAATAAAAAAA [CACACA_site5228]	8.82 ± 0.32
TTATATACATAAAAATGTACTTTTTATAAAATATAT [XGTACX_site8281]	8.21 ± 0.18
AAGTTAGTATTCTGCTGTACTTCTATATATAAGTGT [XGTACX_site7678]	8.41 ± 0.3
CAATAATTTTTTAAATGTACTTTATTATAATTTAAT [XGTACX_site135]	8.16 ± 0.38
TATATATAATACAGTATGCACTATTTTTATTAAAAA	8.46 ± 0.22
GAATGAATCAATGTTTGTACTCAACAAATTATAAGG [XGTACX_site5122]	8.47 ± 0.32
GCCTTCCTTCTAAATGCACACGGAAAGTATAAATGT [CACACA_site8797]	8.88 ± 0.15
ACAACATTTCTCAAATGTACATAATATAATTTATAT [XGTACX_site3224]	8.51 ± 0.23
TATTAATTCTTAAATTTTTTTTTTTAATTCCTAGGA [CACACA_negctrl_site879]	7.93 ± 0.49
GTCTAACAACCAAACGCACACACACTAATAAAAAAA [CACACA_site8026]	8.71 ± 0.22
TTTTCTTACATCTTATAAAAAAAAATATATATTATA [GTGCAC_negctrl_site118]	8.17 ± 0.27

Sequence	gcPBM binding intensity (ln)
TAATATATATATTTATGTACATATAAATTTTCTCCT [XGTACX_site4496]	8.66 ± 0.4
TATTTTAAAACAAAAATATAATTTCATAAAAATATA [CACACA_negctrl_site394]	8.01 ± 0.44
ATATATCAAAAATGATGACATAAATATATTAATTTA [TGCATGCA_negctrl_site259]	8.11 ± 0.3
ATAAAATAATCTTATGCACACCAAAAATTTATATAA [CACACA_site8332]	8.53 ± 0.25
TATCTGTATGTATGTACACACAAAAAATGGAATATA [CACACA_site5947]	8.7 ± 0.38
TTTTTGTAAAATAAACGTACAAAACAATTGTTCATT [XGTACX_site6537]	8.67 ± 0.35
TATAAACCAATGAACACACAAACATATATATATATA [CACACA_site3168]	10.1 ± 0.36
TCTTTTTATATTTATTGTACATAAAAAATAAAACAT [XGTACX_site4073]	8.47 ± 0.33
TTTTTTTTTCTTTCTTTCTTTTGTAAAAACCTCAAA [CACACA_negctrl_site723]	8.46 ± 0.37
ATATGTATATATAAAAGTACGCGTAAAAAAAAAAAA [XGTACX_site5377]	9.12 ± 0.51
TAAATATATAAATACACACACATACACAAAAAAAAA [CACACA_site5890]	8.76 ± 0.46
TATACACCCTAAAATACACACACACCCACCCATATA [CACACA_site9380]	9.07 ± 0.72
AAATACTGTACAAAGGTGCATAAAAAGTGGGGCATA	9.35 ± 0.028
TCAAAAGAAATAAAAACATGCATAAAAGTAAAAATA [TGCATGCA_site832]	9.02 ± 0.45
AAATAATATATATACACACACACATATATATATACA [CACACA_site554]	8.56 ± 0.53
TTATGATAATTTTGCACACACTTAGGAAAAATTATG [CACACA_site4949]	8.57 ± 0.26
TGTTTTTCATAGTGCACACATAACCAAAAATAGTAT [CACACA_site3150]	9.35 ± 0.44
ACGTATATTTTTACATGTACATATGTAAAAAATTTT [XGTACX_site4587]	8.71 ± 0.36
